# Data published in the supplement of paper PMC11880418.
# Where a name gives a salt, the structure may show the parent alone. Some of the results follow. The data scatter; read single values as rough.
# What was measured:
# Experiment in all cases: ALDHbr (CSC) cell proportion score relative to DMSO vehicle (ratio to DMSO); breast (SUM159) / gastric (MKN45) / pancreatic (PANC1) / colon cancer lines; ALDHbr cells have high ALDH activity and are rich in cancer stem cells (CSC); higher = more CSC (ALDHbr) cells remaining
# Settings in all cases: 10 µM; 72 h
# MKN45 = system: MKN45
# PANC1 = system: PANC1
# SUM159 = system: SUM159
# T84 = system: T84
# 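Note: High-content imaging of ALDEFLUOR-stained cells with Hoechst-labelled nuclei in 384-well plates, triplicate wells, scored as Z-score against 0.1% DMSO vehicle, negative meaning fewer ALDHbr cells.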
SMILES,ALDHbr (MKN45),ALDHbr (PANC1),ALDHbr (SUM159),ALDHbr (T84)
COC(=O)C1=C(C#N)NC(C)=C(C(=O)OC(C)C)C1c1cccc([N+](=O)[O-])c1 (centres undefined) [Nilvadipine],0.298,0.673,0.763,0.65
CN(CCOc1ccc(CC2SC(=O)NC2=O)cc1)c1ccccn1 (centres undefined) [Rosiglitazone Hydrochloride],0.831,0.848,0.584,0.668
CC[C@H]1OC(=O)[C@H](C)[C@@H](O[C@H]2C[C@@](C)(OC)[C@@H](O)[C@H](C)O2)[C@H](C)[C@@H](O[C@@H]2O[C@H](C)C[C@H](N(C)C)[C@H]2O)[C@](C)(O)C[C@@H](C)/C(=N\OCOCCOC)[C@H](C)[C@@H](O)[C@]1(C)O [Roxithromycin],0.973,0.976,0.994,0.915
CN(C)CCCN1c2ccccc2Sc2ccccc21 [Promazine hydrochloride],0.991,1.01,0.905,0.901
Cc1cccc(CN2CCN(C(c3ccccc3)c3ccc(Cl)cc3)CC2)c1 (centres undefined) [Meclozine dihydrochloride],0.418,0.985,0.728,0.934
CCCC(CCC)C(=O)O [Valproic acid],1.17,1,0.949,0.879
CC1c2cccc(O)c2C(O)=C2C(=O)C3(O)C(O)=C(C(N)=O)C(=O)C(N(C)C)C3C(O)C21 (centres undefined) [Doxycycline hydrochloride],0.987,0.631,1.16,0.961
CNC(=O)c1c(I)c(C(=O)NCC(=O)Nc2c(I)c(C(=O)O)c(I)c(C(=O)NCCO)c2I)c(I)c(N(C)C(C)=O)c1I [Ioxaglic acid],1.06,0.898,1.12,0.962
O=S(=O)(O)CCS [Mesna],1.3,0.992,0.975,1.06
CO[C@H]1C[C@H](O[C@H]2[C@H](C)[C@@H](O[C@@H]3O[C@H](C)C[C@H](N(C)C)[C@H]3OC(C)=O)[C@@H](C)C[C@@]3(CO3)C(=O)[C@H](C)[C@@H](OC(C)=O)[C@@H](C)[C@@H](C)OC(=O)[C@@H]2C)O[C@@H](C)[C@@H]1OC(C)=O [Troleandomycin],0.858,0.829,1.58,0.825
CC(=O)c1ccc(S(=O)(=O)NC(=O)NC2CCCCC2)cc1 [Acetohexamide],0.886,0.858,1.13,0.86
OCCN(CCO)c1nc(N2CCCCC2)c2nc(N(CCO)CCO)nc(N3CCCCC3)c2n1 [Dipyridamole],0.661,0.736,0.589,0.977
CNCC[C@@H](Oc1cccc2ccccc12)c1cccs1 [(R)-Duloxetine hydrochloride],1.3,1.3,0.64,0.547
COc1cc(Cc2cnc(N)nc2N)cc(OC)c1OC [Trimethoprim],1.1,0.988,0.934,0.946
C[C@@H]1NC(=O)NC1=O [Methylhydantoin-5-(L)],0.9,0.866,0.913,0.84
CC(CN(C)C)C(C)(O)Cc1ccc(Cl)cc1 (centres undefined) [Clobutinol hydrochloride],1.05,0.952,0.913,1.01
CCN1CCCC1CNC(=O)c1cc(S(N)(=O)=O)ccc1OC (centres undefined) [Sulpiride],0.894,0.961,1.29,0.969
CCOC(=O)C(C)(C)Oc1ccc(Cl)cc1 [Clofibrate],1.17,0.902,0.98,0.915
CCN(CC)Cc1cc(Nc2ccnc3cc(Cl)ccc23)ccc1O [Amodiaquin dihydrochloride dihydrate],1.42,1.03,0.585,0.933
CC(N)C12CC3CC(CC(C3)C1)C2 (centres undefined) [Rimantadine Hydrochloride],1.13,0.938,1.03,0.978
CNCCc1ccccn1 [Betahistine mesylate],1.06,0.977,0.971,1.02

SMILES,ALDHbr (MKN45),ALDHbr (PANC1),ALDHbr (SUM159),ALDHbr (T84)
CN(C)CCN1C(=O)c2ccccc2N(C)c2ccccc21 [Dibenzepine hydrochloride],0.99,0.778,1.13,1.05
CC(C)/N=c1\cc2n(-c3ccc(Cl)cc3)c3ccccc3nc-2cc1Nc1ccc(Cl)cc1 [Clofazimine],0.427,0.515,0.873,0.0833
CS(=O)(=O)c1ccc([C@@H](O)[C@@H](CF)NC(=O)C(Cl)Cl)cc1 [Florfenicol],0.533,0.73,1.36,0.816
CC(C)NCC(O)COc1ccc(COCCOC(C)C)cc1 (centres undefined) [Bisoprolol fumarate],0.864,0.866,0.934,1
CCN(CCO)CCCC(C)Nc1ccnc2cc(Cl)ccc12 (centres undefined) [Hydroxychloroquine sulfate],1,0.968,0.731,0.979
O=C(O)c1cn(C2CC2)c2cc(N3CCNCC3)c(F)cc2c1=O [Ciprofloxacin hydrochloride monohydrate],0.868,0.86,1.04,0.896
c1ccc(-c2ccc(C(c3ccccc3)n3ccnc3)cc2)cc1 (centres undefined) [Bifonazole],0.672,1.34,1.48,0.946
CCN(CC)C(=S)SSC(=S)N(CC)CC [Disulfiram],1.44,0.966,0.88,0.828
CCc1c2c(nc3ccc(OC(=O)N4CCC(N5CCCCC5)CC4)cc13)-c1cc3c(c(=O)n1C2)COC(=O)[C@]3(O)CC [Irinotecan hydrochloride trihydrate],0.167,1.97,1.39,0.616
CCOc1ccc2c(c1)C(C)=CC(C)(C)N2 [Ethoxyquin],0.947,0.905,1.04,0.839
CN(C)CCOC(c1ccc(Cl)cc1)c1ccccn1 (centres undefined) [Carbinoxamine maleate salt],1.2,0.837,1.17,1.19
C[C@H](CCC(=O)O)[C@H]1CC[C@H]2[C@@H]3C(=O)C[C@@H]4CC(=O)CC[C@]4(C)[C@H]3CC(=O)[C@]12C [Dehydrocholic acid],0.999,0.978,1.05,1.03
CC(=O)Nc1c(I)c(NC(C)=O)c(I)c(C(=O)O)c1I [Diatrizoic acid dihydrate],1.17,1,1.07,1.04
O=C1CCc2ccc(OCCCCN3CCN(c4cccc(Cl)c4Cl)CC3)cc2N1 [Aripiprazole],0.621,0.603,0.783,0.622
CC1(C)O[C@@H]2C[C@H]3[C@@H]4C[C@H](F)C5=CC(=O)CC[C@]5(C)[C@H]4[C@@H](O)C[C@]3(C)[C@]2(C(=O)CO)O1 [Flurandrenolide],0.923,0.609,1.36,1.04
CCSc1ccc2c(c1)N(CCCN1CCN(C)CC1)c1ccccc1S2 [Thiethylperazine dimalate],0.652,0.822,0.286,0.153
Nc1ccc(S(=O)(=O)Nc2ccc(Cl)nn2)cc1 [Sulfachloropyridazine],1.15,0.966,1.43,0.923
C[C@H](N)[C@H](O)c1cccc(O)c1 [Metaraminol bitartrate],0.927,0.752,1.91,0.968
CCCCc1cc2ccccc2c(OCCN(C)C)n1 [Dimethisoquin hydrochloride],0.815,0.889,0.647,0.893
Cc1ncc([N+](=O)[O-])n1CCO [Metronidazole],1.08,0.811,1.09,0.954
